# From PubChem BioAssay AID2546 (National Center for Advancing Translational Sciences (NCATS), 2010)
# Screen size: about 310,000 compounds; about 11,000 (3.5%) were called active. Inconclusive results, whose numbers are uncertain, are shown with a selection of clear calls. The call rests on the fitted dose curve; in most records, active means well fitted inhibition curve with a large enough effect; inconclusive means small, poorly fitted or top-dose-only effect, or effect the other way; inactive means flat fitted curve, though single readings scatter. No potency is given beside an inconclusive call; the fits are too rough.
# Assay: VP16 counterscreen qHTS for inhibitors of ROR gamma transcriptional activity;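 further: Gal4-VP16 expression switched on by copper sulfate through the metallothionein promoter; nearly all actives have a fitted effect of over 50% in size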
# Conditions: Drosophila S2 Gal4-VP16 UAS-luciferase, luminescence, 20 h; activity, negative = inhibition: at 53.6 µM (top of the series)
# On the % scale 0 is the no-effect control and ±100 the full control effect; potency means the concentration at half of the fitted maximal effect; tags describe the fitted curve by direction and shape.
SMILES,Potency,"activity, negative = inhibition"
CCCOc1ccc(C(=O)NNC(=S)NC(=O)c2cccs2)cc1,active: 7.94 µM,
COc1ccccc1-c1n[nH]c(=S)n1Cc1ccccc1,"inconclusive [inhibitor, single point]",
Cc1cc(C)c(/C=N/NC(=O)c2nnn(-c3nonc3N)c2CN2CCC(C)CC2)c(C)c1,"inconclusive [inhibitor, single point]",
CCCC1(c2ccccc2)NC(=O)N(CC(=O)c2[nH]c(C)c(C(=O)OCC)c2C)C1=O (stereo not drawn),"inconclusive [inhibitor, partial curve]",
Cc1cnc(NC(=O)CC2CCCC2)s1,,inactive: 5.54%
CC(=O)N/C(=N\c1nc(C)cc(C)n1)Nc1ccccc1Cl,,inactive: 2.22%
Cn1c(-c2c(N)n(C3CCCC3)c3nc4ccccc4nc23)nc2ccccc21,active: 5.62 µM,
Cc1ccc(C)c(NC(=S)N2CCN(CCO)CC2)c1,,inactive: -8.89%
Cc1cccc2sc(N(CCCN(C)C)C(=O)c3ccc(C(=O)c4ccccc4)cc3)nc12,"inconclusive [inhibitor, partial curve]",
S=c1nc(-c2ccccc2)n(Cc2ccco2)c2c1CCCC2,"inconclusive [inhibitor, single point]",
COc1cccc(NC(=O)CN(C)C(=O)c2ccc(-c3ccccc3Cl)o2)c1,,inactive: -13.6%
CCN(CC)CCCNc1nc(-n2nc(C)cc2C)nc2sc3c(c12)CC(C)(C)OC3,"inconclusive [inhibitor, single point]",
COc1cccc(NC(=O)Nc2cc(Cl)ccc2C)c1,"inconclusive [inhibitor, single point]",
S=C1NC2=C(CCCC2=C2SCCS2)C(c2ccccc2)N1 (stereo not drawn),"inconclusive [inhibitor, single point]",
Cc1cccc(NC(=O)C2(c3cccs3)CCOCC2)n1,,inactive: 1.57%
CC(C)c1ccc(C2CC(c3ccc(Br)cc3)=NN2C(N)=S)cc1 (stereo not drawn),active: 5.62 µM,
Cc1ccc(N2CCN(S(=O)(=O)c3ccc4c(c3)NC(=O)C(C)C(=O)N4)CC2C)cc1 (stereo not drawn),"inconclusive [inhibitor, single point]",
Cc1nc(-c2ccccn2)nc(N(C)c2ccccc2)c1Cl,active: 1.58 µM,
CC1(C)Cc2c(c(-c3ccccc3)nc3[nH][nH]c(=O)c23)CO1,,inactive: 9.87%
Cc1ccc(C(C)C)cc2c(C)ccc1-2,"inconclusive [inhibitor, partial curve]",
Cc1cccc(C(C)C)c1NC(=O)c1cc2ccccc2o1,,inactive: 23.3%
CC1CCN(CCCNC(=O)CCCNC(=O)Cn2cnc3sc4c(c3c2=O)CCCC4)CC1,,inactive: 4.21%
COC(=O)c1cc(=O)n(Cc2ccco2)c(=Nc2ccc(F)c(Cl)c2)s1,"inconclusive [inhibitor, single point]",
COC(=O)c1c(NC(=S)Nc2ccc(F)cc2[N+](=O)[O-])sc2c1CCCCC2,"inconclusive [inhibitor, single point]",
CCOC(=O)N1CCc2c(sc3nc(SC(C)C)n(N)c(=O)c23)C1,"inconclusive [inhibitor, partial curve, poor fit]",

SMILES,Potency,"activity, negative = inhibition"
COc1ccc(-n2c(C)cc(C(=O)CSc3nnc(-c4cccs4)o3)c2C)cc1,"inconclusive [inhibitor, single point]",
COc1ccc(C(=O)N/N=C/c2ccc(OC)c(COc3c(F)c(F)cc(F)c3F)c2)cc1,"inconclusive [inhibitor, single point]",
COc1cccc(CC2(CO)CCN(CC3=CC[C@H]4C[C@@H]3C4(C)C)CC2)c1,,inactive: -0.551%
Cc1ccc(NC(=O)c2cnn(-c3ccccc3)c2C)cc1C,"inconclusive [inhibitor, partial curve]",
Cc1ccc2nc(-c3ccc(NC(=O)CN4CCN(c5ccccn5)CC4)cc3)sc2c1,"inconclusive [inhibitor, partial curve]",
Cc1nn(-c2ccc(Cl)c(Cl)c2)c(=O)c2ccccc12,"inconclusive [inhibitor, full curve, poor fit]",
COc1ccccc1NC(=O)c1ccc(NC(=O)COC(=O)C(C)C)cc1,,inactive: -1.17%
Nc1cc(Cl)c([N+](=O)[O-])cc1O,"inconclusive [inhibitor, single point]",
CCc1nc(SCC(=O)c2cccc([N+](=O)[O-])c2)n[nH]1,"inconclusive [inhibitor, single point]",
CCN1CCc2c(sc(NC(=O)c3ccc4ccccc4c3)c2C(N)=O)C1,"inconclusive [inhibitor, single point]",
CC(C)NC(=O)/C(C#N)=C/c1cccc(NC(=O)c2ccccc2Cl)c1,"inconclusive [inhibitor, single point]",
CS/C(=N\S(=O)(=O)c1cccs1)Nc1ccc(F)c(Cl)c1,"inconclusive [inhibitor, single point]",
CN(C(=S)Nc1ccc(SC(F)F)cc1)C(c1ccccc1)c1ccccc1,"inconclusive [inhibitor, single point]",
Cc1ccc2sc(NNC(=O)c3ccc4c(c3)OCCO4)nc2c1C,"inconclusive [inhibitor, single point]",
Cc1nn(-c2ccccc2)c(Cl)c1/C=N/NC(=O)c1ccn[nH]1,"inconclusive [inhibitor, partial curve, poor fit]",
COc1ccc(CNC(=O)c2ccc(Cn3cc(Br)cn3)o2)cc1,,inactive: 3.73%
CC1CCCN(S(=O)(=O)c2ccc(S(=O)(=O)N3CCC4(CC3)OCCO4)cc2)C1 (stereo not drawn),"inconclusive [activator, single point]",
Cc1ccnc(NS(=O)(=O)c2ccc(NC(=O)c3cc(-c4ccc(Br)cc4)nc4ccccc34)cc2)n1,"inconclusive [inhibitor, single point]",
Cc1ccc(-c2csc(N/N=C/c3ccco3)n2)c(C)c1,"inconclusive [inhibitor, single point]",
Nc1nc2ccc(N3CCOCC3)cc2s1,"inconclusive [inhibitor, single point]",
Cc1cccc(N=CC=C2OC(C)(C)C(C)(C)O2)c1,"inconclusive [activator, single point]",
Cc1cccc(C(=O)NC(=S)N2CCc3ccccc3C2)c1,active: 3.55 µM,
COc1ccc(C(=O)NNC(=S)NC2CCCCC2)cc1OC,"inconclusive [inhibitor, single point]",
CN(CCc1ccccn1)C(=O)Nc1ccc(C(C)(C)C)cc1,,inactive: 4.72%
Cc1nn(CCCC(=O)NCc2ccc(F)cc2)c(=O)c2nccn12,,inactive: -5.08%

SMILES,Potency,"activity, negative = inhibition"
O=C(Nc1nc2ccccc2[nH]1)c1ccc([N+](=O)[O-])cc1,"inconclusive [inhibitor, single point]",
CSCc1nnc(NC(=O)c2ccc(S(=O)(=O)N(CC(C)C)CC(C)C)cc2)o1,active: 0.631 µM,
CC(C)(C)OC(=O)NCCCC[C@H](NC(=O)c1nc[nH]c1C(=O)NCc1ccccc1)C(=O)OC(C)(C)C,"inconclusive [inhibitor, single point]",
COc1ccc(NC(=S)Nc2ncccc2C)cc1OC,"inconclusive [inhibitor, partial curve]",
Cc1cccc(C)c1OCc1cc(C(=O)N(Cc2nccn2C)C(C)C)no1,,inactive: -11.2%
CCOc1ccccc1NC(=S)Nc1ncccc1C,active: 7.08 µM,
N#CC1=C2SCN(Cc3ccco3)CN2C(=O)CC1c1ccc(Cl)cc1 (stereo not drawn),"inconclusive [inhibitor, single point]",
CC(C)(C)c1ccc(C(=O)NC(=S)NNC(=O)c2cccs2)cc1,active: 7.08 µM,
COCCn1c(=O)[nH]c2cc(C(=O)N3CCN(c4cccc(C(F)(F)F)c4)CC3)ccc2c1=O,"inconclusive [inhibitor, single point]",
O=C(Nc1nc(-c2cccs2)cs1)c1ccc(Cl)cc1,"inconclusive [inhibitor, full curve]",
Cc1cccc2c1-c1sc(C(=O)Nc3cccc([N+](=O)[O-])c3C)cc1CO2,"inconclusive [inhibitor, partial curve]",
O=C(Nc1ccc(Cl)cc1)Nc1nc(-c2ccccc2O)cs1,,inactive: -11.2%
CC(=O)c1cn(CCOc2cc(C)ccc2C)c2ccccc12,active: 3.98 µM,
Cc1ccc(/C=N\NC(=O)c2cc(OCC(F)(F)F)ccc2OCC(F)(F)F)cc1,"inconclusive [inhibitor, partial curve]",
CCCCOc1ccc(/C=N/Nc2cc(N3CCOCC3)nc(C)n2)cc1,"inconclusive [inhibitor, single point]",
C/C=C(\C)CN1CCC(n2nccc2NC(=O)c2ccc(OC)cc2)CC1,"inconclusive [inhibitor, partial curve]",
O=C(c1csnn1)N1CCC2(CC1)CCN(c1cccc(-c3ccccc3)c1)CC2,,inactive: -10.3%
Cc1ccc(S(=O)(=O)NC(=O)NC2CCCCC2)cc1,,inactive: -1.53%
COc1ccc2[nH]c(=O)c(C(c3nnnn3CC3CCCO3)N3CCCCC3)cc2c1 (stereo not drawn),,inactive: 6.95%
CCCc1nc(SCC(=O)NCC2CCCO2)c2c(=O)n(C)c(=O)n(C)c2n1 (stereo not drawn),,inactive: 2.29%
O=C1CNC(=S)N1CCc1ccc(Cl)cc1,,inactive: 1.63%
COc1cc(/C=C/C2=CC(C)(C)NC(=S)N2)cc(OC)c1OC,active: 12.6 µM,
O=c1c(C(c2ccc(Cl)cc2)c2c(O)nc3n(c2=O)CCS3)c(O)nc2n1CCS2,"inconclusive [inhibitor, partial curve]",
